The source of these data is paper PMC4336329 (PLoS ONE, 2015).

Structures are written as SMILES. The campaign covered roughly 310,000 compounds. About 14,000 (4.5%) showed an effect of 50% or more. Effects have a minus sign here. The list shows a part of the results.
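Also: peak tail current of the secondary pulse compared with the same well before compound.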

In this experiment the target is human ether-à-go-go-related gene (hERG) potassium channel (human, UniProt Q12809). Description: primary screen, population patch clamp on CHO cells stably expressing hERG.
human ether-à-go-go-related gene (hERG) potassium channel, sequence (Q12809 whole entry, looked up): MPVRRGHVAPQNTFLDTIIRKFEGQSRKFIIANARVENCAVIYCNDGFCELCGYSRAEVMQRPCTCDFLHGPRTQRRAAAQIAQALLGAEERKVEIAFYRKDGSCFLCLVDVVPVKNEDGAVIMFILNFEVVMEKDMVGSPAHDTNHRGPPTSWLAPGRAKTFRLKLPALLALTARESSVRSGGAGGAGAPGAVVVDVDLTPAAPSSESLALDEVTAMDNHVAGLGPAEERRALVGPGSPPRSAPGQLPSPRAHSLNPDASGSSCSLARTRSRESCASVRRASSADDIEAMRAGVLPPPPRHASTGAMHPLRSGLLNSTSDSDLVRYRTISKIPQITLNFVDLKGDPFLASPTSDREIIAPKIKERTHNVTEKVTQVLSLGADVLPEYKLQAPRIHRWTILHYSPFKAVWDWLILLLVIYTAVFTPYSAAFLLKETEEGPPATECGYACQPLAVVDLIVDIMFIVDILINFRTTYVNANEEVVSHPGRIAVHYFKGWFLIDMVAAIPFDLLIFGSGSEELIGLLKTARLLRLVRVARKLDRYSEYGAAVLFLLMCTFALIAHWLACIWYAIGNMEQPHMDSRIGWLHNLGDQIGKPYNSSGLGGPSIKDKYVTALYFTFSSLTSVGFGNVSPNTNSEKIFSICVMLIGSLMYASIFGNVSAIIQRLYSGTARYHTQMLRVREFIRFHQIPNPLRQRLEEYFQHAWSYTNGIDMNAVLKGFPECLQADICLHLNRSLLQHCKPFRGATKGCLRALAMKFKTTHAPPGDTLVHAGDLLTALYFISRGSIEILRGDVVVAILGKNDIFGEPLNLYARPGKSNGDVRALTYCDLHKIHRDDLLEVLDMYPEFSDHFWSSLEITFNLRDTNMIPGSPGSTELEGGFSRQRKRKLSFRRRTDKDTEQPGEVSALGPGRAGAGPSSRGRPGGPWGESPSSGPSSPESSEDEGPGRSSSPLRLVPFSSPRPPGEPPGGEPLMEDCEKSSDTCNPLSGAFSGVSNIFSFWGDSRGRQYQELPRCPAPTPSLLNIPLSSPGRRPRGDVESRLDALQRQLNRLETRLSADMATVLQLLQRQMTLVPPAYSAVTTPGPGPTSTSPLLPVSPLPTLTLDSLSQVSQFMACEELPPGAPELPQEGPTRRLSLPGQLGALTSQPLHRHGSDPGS
For `COc1cc(CNC(=O)C2CCCC2)cc(OC)c1OC`, the “hERG current change (%, negative = inhibition) at 10uM” value was 18.6%. As for `CC(C)CNC(=O)C1CCCN(S(=O)(=O)c2ccc(-n3cnnn3)cc2)C1` (centres unmarked), the figure is -0.697%.

As to `CNC(=O)c1cc2cc(OC)ccc2oc1=O`, the “hERG current change (%, negative = inhibition) at 10uM” value was -5.67%.

For `COc1ccc(Cn2c(=O)[nH]c3cc(C(=O)NCCCN4CCCC4)ccc3c2=O)cc1`, the “hERG current change (%, negative = inhibition) at 10uM” value was determined as 0.46%. `Cc1ccnc(SCCn2c(N3CCC(C)CC3)nc3c2c(=O)n(C)c(=O)n3C)n1`: the “hERG current change (%, negative = inhibition) at 10uM” value is -8.64%. Take `COC(=O)CN(C)C(=O)CC1C(=O)NCCN1CC(C)(C)C` (centres unmarked): the “hERG current change (%, negative = inhibition) at 10uM” value stood at 22.8%.

With `CC(=O)c1nn(-c2ccc(Br)cc2)cc1C(=O)c1ccccc1`, the “hERG current change (%, negative = inhibition) at 10uM” value came to 17%. For `O=C(Nc1ccc(-c2csc(-c3ccccc3)n2)cc1)c1ccccc1Cl`, the “hERG current change (%, negative = inhibition) at 10uM” value amounted to 12.3%. Regarding `COCCn1c(SCc2cccc(F)c2)nc2cc(C(=O)OC)ccc2c1=O`, the “hERG current change (%, negative = inhibition) at 10uM” value was found to be 12%.

As for `O=C(COC(=O)Cc1ccccc1F)NCCNC(=O)COC(=O)Cc1ccccc1F`, the “hERG current change (%, negative = inhibition) at 10uM” value is listed as -5%. As for `Nc1ccc(OC(=O)Nc2ccc(O)cc2)cc1`, the “hERG current change (%, negative = inhibition) at 10uM” value was 9.66%. The figure for `CCC(Oc1ccccc1)C(=O)Nc1nnc(S(=O)(=O)Nc2ccccc2)s1` (centres unmarked) is 11.3%; for `O=C(NC12CC3CC(CC(C3)C1)C2)N1CCN(c2nc(-c3ccccc3)cs2)CC1` it is 8.01%. In the case of `CC(C)OC(=O)CSc1nc(C(C)C)nc2ccccc12`, the “hERG current change (%, negative = inhibition) at 10uM” value came to 14.1%. `O=C(Nc1ccccc1)C1=C[C@@H](C2CC2)C[C@@H](OCCCCO)O1`: the “hERG current change (%, negative = inhibition) at 10uM” value is -0.335%. For `O=C1CC(c2cccc([N+](=O)[O-])c2)c2cc3c(cc2N1)CCC3` (centres unmarked), the “hERG current change (%, negative = inhibition) at 10uM” value is given as 4.53%. Turning to `COC(=O)c1cc(S(=O)(=O)N2CCN(c3ccccc3OC)CC2)cn1C`, the “hERG current change (%, negative = inhibition) at 10uM” value is given as 11.8%.

On to `CC(C)(CN1CCC(Cc2ccccc2)CC1)NS(=O)(=O)c1ccccc1.O=C(O)C(=O)O`, for which the “hERG current change (%, negative = inhibition) at 10uM” value is listed as -60.8%. For `O=C1CN2NC(=S)N(c3ccc(Cl)cc3)C2=CN1c1ccc(Cl)cc1`, the “hERG current change (%, negative = inhibition) at 10uM” value is recorded as 20.5%. `Cc1c(Br)c([N+](=O)[O-])nn1CCCC(=O)N1CCN(c2ccccc2)CC1`: the “hERG current change (%, negative = inhibition) at 10uM” value was -32.4%.

Take `Cc1cc(C)cc(NC(=O)CCCn2nc(C)c3c(C)n(-c4ccccc4)nc3c2=O)c1`: the “hERG current change (%, negative = inhibition) at 10uM” value is reported as -4.07%. On to `Cc1cccc2cc(CN(Cc3ccccc3)C(=O)c3cccc(F)c3)c(Cl)nc12`, for which the “hERG current change (%, negative = inhibition) at 10uM” value was -2.31%.

`Cc1onc(NC(=O)NC(=O)c2c(Cl)cccc2Cl)c1Br`: the “hERG current change (%, negative = inhibition) at 10uM” value was -36.4%. Turning to `COC(=O)c1ccccc1NC(=O)CSc1ccccc1`, the “hERG current change (%, negative = inhibition) at 10uM” value is recorded as -13.4%. In the case of `COc1ccccc1NC(=O)COc1ccc(/C=N/n2cnnc2)cc1OC`, the “hERG current change (%, negative = inhibition) at 10uM” value amounted to 8.86%. In the case of `CC(=O)Nc1ccc(S(=O)(=O)NCC(=O)NCCc2ccc(S(N)(=O)=O)cc2)cc1`, the “hERG current change (%, negative = inhibition) at 10uM” value worked out at 27%. In the case of `CCn1c(CCNC(=O)c2cccs2)nnc1SCC(=O)c1ccc(OC)cc1`, the “hERG current change (%, negative = inhibition) at 10uM” value turned out to be 7.05%. With `Cc1cc(O)c(C(=O)c2ccccc2C(=O)O)cc1C`, the “hERG current change (%, negative = inhibition) at 10uM” value is reported as -3.51%. On to `O=C(/C=C/c1ccc(Cl)cc1)c1cccnc1`, for which the “hERG current change (%, negative = inhibition) at 10uM” value was -21.5%. In the case of `NP(=O)(OCCCCc1ccccc1)Oc1ccccc1Cl` (centres unmarked), the “hERG current change (%, negative = inhibition) at 10uM” value is reported as -11.2%.

Regarding `Cc1c(C(=O)OCC(=O)NC2CCCCC2)oc2ccccc12`, the “hERG current change (%, negative = inhibition) at 10uM” value is -7.61%. In the case of `Cc1cc(C)n2c(SCCN3C(=O)c4ccccc4C3=O)nnc2n1`, the “hERG current change (%, negative = inhibition) at 10uM” value is listed as 1.27%. The figure for `CCOC(=O)C1CCN(C(=O)c2ccc(OCC(=O)N3CCOCC3)c(OC)c2)CC1` is 11.7%; for `O=C(NCCCN1CCOCC1)c1ccc2c(c1)N(Cc1c(F)cccc1Cl)C(=O)c1ccccc1S2` it is -44.7%. For `O=[N+]([O-])c1ccc(OCn2cncn2)cc1`, the “hERG current change (%, negative = inhibition) at 10uM” value was determined as 10.9%. `Cc1sc(N)nc1-c1cccs1`: the “hERG current change (%, negative = inhibition) at 10uM” value was determined as 20.2%.

As for `O=C(c1ccc(Cl)cc1)N1CCC(C(=O)N2CCN(c3ncccn3)CC2)CC1`, the “hERG current change (%, negative = inhibition) at 10uM” value is on record as -56.6%. As for `CNC(C)C#Cc1ccc2c(=O)c3ccccc3oc2c1` (centres unmarked), the “hERG current change (%, negative = inhibition) at 10uM” value is reported as 1.2%. As for `CCN(CC)C(=S)SCC(=O)Nc1ncc2c(n1)CCCC2=O`, the figure is -8.43%; as for `CN(C)S(=O)(=O)c1ccc(C(=O)NCc2ccc3[nH]c4c(c3c2)CCCC4)cc1`, 1.15%; as for `CC(C)(C)OC(=O)n1cc(/C=N/NC(=O)c2ccco2)c2ccccc21`, 13.7%. On to `O=C(CCCCCn1nnc2ccccc2c1=O)Nc1ccccc1F`, for which the “hERG current change (%, negative = inhibition) at 10uM” value was 6.92%.

For `Cn1c(NC(=O)c2ccccc2Br)cc(=O)n(C)c1=O`, the “hERG current change (%, negative = inhibition) at 10uM” value is 5.9%.

Consider `CCC(CC)C(=O)c1c[nH]c(C(=O)NCCCn2ccnc2)c1`, for which the “hERG current change (%, negative = inhibition) at 10uM” value came out at 2.51%.
